± gives the standard deviation. The entries are a selection whose mix differs from that of the whole data set.
tested on: MIWI (PIWIL1) piRISC loaded with L1MC piRNA (30 nt); assay: pre-steady-state target cleavage rate (min^-1); MIWI and MILI are mouse PIWI proteins and EfPiwi is from a freshwater sponge; tags in brackets are library labels; higher = faster piRNA-guided slicing of the target; conditions: guide: L1MC piRNA 5'p-UAACUAAAUACUAUGCAAGCUGUAGGUCCU; auxiliary factor: 500 nM mouse GTSF1
Description: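 Cleave-'n-Seq: a library of target RNAs (target site embedded in constant flanks, ACAGCATTCCGCGTTAGTGATATCCG... 5' flank; DNA-blocked outside the site) at 0.1 nM was incubated with 1 nM active mouse MILI or MIWI piRISC (synthetic 5'-monophosphorylated piRNA guide) with or without 500 nM mouse GTSF1 at 33 °C for 1 min to 16 h. Uncleaved targets were sequenced and normalised to non-target controls, and the pooled three trials were fitted to a burst-and-steady-state model to give the pre-steady-state cleavage rate (min^-1; k3 is constrained to at most 1e-4). Sequence is the target site only; target names encode pairing extent (gX:gY) and contiguous / 1-mismatch / 2-mismatch / bulge geometry. Fits with R² ≤ 0 are excluded.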

Sequence	pre-steady-state target cleavage rate
UCCUGGAUCAGCUUGCAUUGUAUUAAGUUA	0.227 ± 0.02
UCCUGCUACCAGCUUGCAUAGUAUUUAGUUA	0.735 ± 0.051
AGGACCUUCAGCUUGCAUAGUAUUUACAAA	0.378 ± 0.043
UCCUGGAUGUGCUGUGCAUAGUAUUUAGUUA	0.189 ± 0.022
AGGACCUACAGCUUGCUAAGUAUUUAGUAA	0.23 ± 0.044
UCCUGGAUGUCGAACGAUAGAUAUUUAGUUA	< 0.0001
UCCUGGUACAGCUUGGAUAGUAUUUAGAAA	0.0279 ± 0.011
UCCUGCUACAGCUUGCAUAGUAUUCUAGUUA	0.521 ± 0.056
UCCUCCUACAGCUUGCAUACUUUUUAGUUA	0.0511 ± 0.0091
UCCUGGUACAGCUUGCAGAGUAUUUAGUUA	0.315 ± 0.056
UCCUGGUAGUGCUUGCAUAGUAUUUAGUAA	0.368 ± 0.042
UCCUGGAUGUCCUUGCAUAGUUUUUAGUUA	0.0106 ± 0.0044
UCCUGCUACAGCUUGCAUAGUAUUUAAUUA	0.297 ± 0.035
UGGACCUACACGAUGCAUAGUAUUUAGUAA	0.51 ± 0.05
ACCACCUACAGCUUGCAUAGUAUUUAGUAA	0.663 ± 0.054
UCGACCUACUCCUUGCAUAGUAUUUAGUAA	0.472 ± 0.035
UCCUGGAUCAGUUGCAUAGUAUUUAGUUA	0.257 ± 0.036
UCCUGGAACAGCUUGCAUAGUAUUAAGAAA	0.376 ± 0.066
UCCUGGUACACCUUGCAUAGUAUUUAGAUA	0.116 ± 0.042
UCCUGGAACAGCUUGCAUAGUAUAUUAGUUA	0.819 ± 0.053
UGGACCUACAGCUAGCAUACUAUUUAGUUA	0.383 ± 0.017

same assay, conditions: guide: L1MC piRNA 5'p-UAACUAAAUACUAUGCAAGCUGUAGGUCCU; auxiliary factor: none (no GTSF1)

Sequence	pre-steady-state target cleavage rate
UCCUGGAUCAGCUUGCAUUGUAUUAAGUUA	0.00832 ± 0.0034
UCCUGCUACCAGCUUGCAUAGUAUUUAGUUA	0.0424 ± 0.0096
AGGACCUUCAGCUUGCAUAGUAUUUACAAA	0.01 ± 0.0026
UCCUGGAUGUGCUGUGCAUAGUAUUUAGUUA	0.0101 ± 0.0031
UCCUGCUACAGCUUGCAUAGUAUUCUAGUUA	0.0141 ± 0.0037
UCCUCCUACAGCUUGCAUACUUUUUAGUUA	0.00662 ± 0.0016
UCCUGGUACAGCUUGCAGAGUAUUUAGUUA	0.022 ± 0.006
UCCUGGUAGUGCUUGCAUAGUAUUUAGUAA	0.0162 ± 0.0047
UCCUGGAUGUCCUUGCAUAGUUUUUAGUUA	0.00445 ± 0.0021
UCCUGCUACAGCUUGCAUAGUAUUUAAUUA	0.0245 ± 0.0072
UGGACCUACACGAUGCAUAGUAUUUAGUAA	0.00265 ± 0.002
ACCACCUACAGCUUGCAUAGUAUUUAGUAA	0.0445 ± 0.011
UCGACCUACUCCUUGCAUAGUAUUUAGUAA	0.0187 ± 0.003
UCCUGGAUCAGUUGCAUAGUAUUUAGUUA	0.00383 ± 0.0022
UCCUGGAACAGCUUGCAUAGUAUUAAGAAA	0.00299 ± 0.0026
UCCUGGUACACCUUGCAUAGUAUUUAGAUA	0.00446 ± 0.0026
UCCUGGAACAGCUUGCAUAGUAUAUUAGUUA	0.0111 ± 0.0036
UGGACCUACAGCUAGCAUACUAUUUAGUUA	0.0162 ± 0.0039

From the supplement of paper PMC10338343
